From PubChem BioAssay AID588855 (National Center for Advancing Translational Sciences (NCATS), 2011)
Among all 410,000 compounds or so, about 5,000 (1.2%) were called active. The shares of active, inactive and inconclusive entries below differ from those in the screen. Calls come from the whole dose curve; as a rule, active = well fitted inhibition curve with a large enough effect; inconclusive = small, poorly fitted or top-dose-only effect; inactive = no such curve, though single readings can be large or run the other way. Potencies of inconclusive entries are doubtful fits and often do not repeat.

experiment: qHTS for Inhibitors of TGF-b; conditions: HepG2 CAGA-GFP TGF-b/SMAD3 reporter, GFP fluorescence, 18 h, TGF-beta stimulated, 500 pg/mL final; series mostly up to 46.1 µM; note: nearly all actives have a fitted effect of over 65% in size
Summary of the method: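 HEPG2 CAGA-GFP cells (1000/well, DMEM with 1% FBS) were pre-incubated 2 h at 37 degrees C, given compound by pin tool, then stimulated with TGF-beta at 500 pg/mL final for 18 h before per-cell GFP fluorescence imaging.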
Potency is the fitted concentration of half-maximal effect; tags give direction and shape of the fitted curve.

| Compound | Potency |
| --- | --- |
| CCOC(=O)c1ccc(NC(=O)COc2ccc(S(=O)(=O)NC(C)CC)cc2)cc1 (stereo unspecified) | inconclusive: 0.112 µM [inhibitor, full curve, poor fit] |
| COC1=C/C(=C/c2c(N)n3nc(-c4ccc(C)cc4)sc3nc2=O)C=CC1=O | inactive |
| CCN(C(=O)C1CCCN(c2ncnc3c2nc2n3CCCCC2)C1)c1cccc(C)c1 (stereo unspecified) | inconclusive: 20 µM [inhibitor, single point] |
| Cc1ccc2oc(C(=O)N3CCC(O)(c4cccc(C(F)(F)F)c4)CC3)c(C)c2c1 | inconclusive: 25.1 µM [inhibitor, single point] |
| C[C@@H]1CCCCO[C@@H](CN(C)Cc2ccc(Cl)c(Cl)c2)[C@@H](C)CN([C@H](C)CO)C(=O)c2cc(NC(=O)Nc3ccccc3)ccc2O1 | inconclusive: 7.94 µM [inhibitor, partial curve, poor fit] |
| COc1ccc(-n2nc(C(=O)NCC(=O)N3CCN(c4ccccc4F)CC3)c3ccccc3c2=O)cc1OC | inconclusive: 35.5 µM [inhibitor, single point] |
| COc1ccc(Nc2nc(N3CCCCC3)c3ccccc3n2)cc1 | inconclusive: 17.8 µM [inhibitor, partial curve, poor fit] |
| CCC(=O)OCCn1c(=O)c2ccccc2c2ccccc2c1=O | inactive |
| CC(C)C(=O)N1CCCC1(C)C(=O)Nc1ccc(-n2cncn2)cc1 (stereo unspecified) | inactive |
| CN1C(=O)Cc2cc(S(=O)(=O)CCC(=O)Nc3ccc(OC(F)(F)F)cc3)ccc21 | inconclusive: 2.24 µM [inhibitor, full curve, poor fit] |
| O=C(O)COc1ccc(Oc2ccccc2)cc1 | inconclusive: 0.562 µM [inhibitor, partial curve, poor fit] |
| COC(=O)c1ccc(NC(C)C(=O)OC)c([N+](=O)[O-])c1 (stereo unspecified) | inconclusive: 12.6 µM [inhibitor, single point] |
| Cn1c(CCc2ccc(N)cc2)nc2ccccc21 | inactive |
| O=C(O)CCCNC(=O)CCn1nnc2ccccc2c1=O | inconclusive: 1.78 µM [inhibitor, partial curve, poor fit] |
| COc1cc(O)c(C(CCN2CCOCC2)c2ccc3c(c2)OCO3)c(OC)c1 (stereo unspecified) | inconclusive: 35.5 µM [inhibitor, single point] |
| COc1cccc(-c2csc(N3CCN(C(=O)Nc4ccc(Cl)cc4)CC3)n2)c1 | inconclusive: 11.2 µM [inhibitor, partial curve, poor fit] |
| C=CCNC(=O)c1ccc2c3n(nc2c1)-c1ccccc1CO3 | inconclusive: 1.12 µM [inhibitor, full curve, poor fit] |
| CCc1nnc(NC(=O)c2ccc(Cl)c(S(=O)(=O)N3CCc4ccccc43)c2)s1 | inconclusive: 15.8 µM [inhibitor, partial curve, poor fit] |
| CCc1cccc(CC)c1NC(=O)COC(=O)C1(c2ccc(Cl)cc2)CCCC1 | inconclusive: 22.4 µM [inhibitor, single point] |
| Nc1nc(N)c(N=Nc2ccc(Cl)cc2)c(=O)[nH]1 | inactive |
| CCn1cc(C(=O)NCCc2ccc(C)cc2)c(=O)c2cc(S(=O)(=O)N3CCc4ccccc4C3)ccc21 | inconclusive: 11.2 µM [inhibitor, single point] |

| Compound | Potency |
| --- | --- |
| CC(C)C(OC(=O)Cn1nnc2ccccc21)C(=O)NC1CCCC1 (stereo unspecified) | inactive |
| CC(c1ccco1)N(C(=O)c1ccccc1NS(=O)(=O)c1ccc(Cl)cc1)c1ccccn1 (stereo unspecified) | inconclusive: 22.4 µM [inhibitor, single point] |
| Cc1ccc(NC(=O)Nc2nnc([C@@H]3C[C@H](O)[C@@H](CO)O3)s2)cc1 | inconclusive: 3.55 µM [inhibitor, single point] |
| CCCn1c(C(O)c2ccc(OC)c(OC)c2)nc2ccccc21 (stereo unspecified) | inconclusive: 20 µM [inhibitor, single point] |
| Cc1cc(C)c(C)c(S(=O)(=O)ON2C(=O)c3ccccc3C2=O)c1C | inconclusive: 17.8 µM [inhibitor, partial curve, poor fit] |
| CC(=O)c1ccc(N2CCN(C(=O)CCn3cnc4onc(-c5ccc(F)cc5)c4c3=O)CC2)cc1 | inactive |
| CC(Sc1nc(-c2ccccc2)cc(C(F)(F)F)n1)C(=O)N1CCCC1 (stereo unspecified) | inactive |
| COc1ccc(NC(=O)Nc2c(C)n(-c3ccccc3)c(=O)n2C)cc1OC | inconclusive: 35.5 µM [inhibitor, single point] |
| COc1cc(OC)cc(-c2nc3ccccc3c(=O)n2OC(=O)c2ccc(C)c(C)c2)c1 | inconclusive: 14.1 µM [inhibitor, single point] |
| CC(=O)Oc1ccc2ccccc2c1C(NC(=O)Cc1ccccc1)c1ccc(Cl)cc1 (stereo unspecified) | inconclusive: 31.6 µM [inhibitor, single point] |
| Cn1cc(CN2CCC(C(=O)NC(c3ccc(-c4ccccc4)cc3)c3cnccn3)CC2)c2ccccc21 (stereo unspecified) | inconclusive: 25.1 µM [inhibitor, single point] |
| COc1ccccc1C(=O)Nc1ccc(Cc2ccncc2)cc1 | inconclusive: 35.5 µM [inhibitor, single point] |
| COc1ccc(NC(=S)NC2CC3CCCC(C2)N3C2CC2)cc1 (stereo unspecified) | inactive |
| COc1ccc(Cn2c(/C=C/c3ccccc3)nc3ccccc32)cc1 | inconclusive: 35.5 µM [inhibitor, single point] |
| c1ccc2c(c1)CSc1ccccc1N2 | inactive |
| CCCn1c(=O)c(C(=O)N/N=C/c2ccc(F)cc2)c(O)c2ccccc21 | inactive |
| COc1ccc2oc3cc(C)[n+]([O-])c(-c4ccc(Cl)cc4)c3c2c1 | inconclusive: 35.5 µM [inhibitor, single point] |
| OCCN(Cc1ccccc1)CC(O)COc1ccc(-c2ccccc2)cc1 (stereo unspecified) | inconclusive: 25.1 µM [inhibitor, single point] |
| CC(OC(=O)/C=C/c1cccs1)C(=O)Nc1ccc(C(N)=O)cc1 (stereo unspecified) | inactive |
| O=C(OCC(=O)N1CCCCC1)c1cc(NS(=O)(=O)c2ccc(Cl)c([N+](=O)[O-])c2)ccc1O | inconclusive: 25.1 µM [inhibitor, single point] |
